According to PubChem BioAssay AID463173 (ICCB-Longwood Screening Facility, Harvard Medical School, 2010):
The campaign covered roughly 52,000 compounds. About 1,700 (3.3%) were called active. Rule as the data show it: active = survival mostly below about 52% (no sharp cut-off); inactive = mostly above about 56%. Some of the results follow.

system: Wild type; assay: S. aureus survival, RN4220 and DeltatarO strains – OD600, teichoic acid synthesis inhibitors, primary screen (AID 463173); settings: S. aureus RN4220 wild type/DeltatarO growth, OD600, 18 h, active compounds read low, screened at 18.75 µg/mL (by protocol)

Row | Compound | survival
1 | O=c1c2oc3ccccc3c2n(Cc2ccc(Cl)cc2)c(=O)n1Cc1ccc2c(c1)OCO2 | inactive: 86%
2 | Fc1cccc(NCc2ccccc2-c2nnc(-c3ccccc3Cl)o2)c1 | inactive: 149%
3 | Cc1ccc(-n2c3c(c(=O)[nH]c2=O)C(NS(=O)(=O)c2ccc(Cl)cc2)(C(F)(F)F)C(=O)N3)cc1 (centres undefined) | inactive: 81%
4 | COCCNC(=O)CSc1nc2cc3c(cc2c(=O)n1CCCC(=O)NCCc1ccc(OC)c(OC)c1)OCO3 | inactive: 57%
5 | CCC(CC)C(=O)Nc1nnc(SCc2cc(=O)c3ccccc3[nH]2)s1 | inactive: 115%
6 | CCOCCCNC(=O)CN1C(=O)c2cccnc2Sc2ccccc21 | inactive: 71%
7 | CCCCNC(=O)CCCN1C(=O)CCn2nc(-c3cccn3C)cc21 | inactive: 65%
8 | Cc1ccc(Cl)cc1N1CCN(C2(c3ccccc3)C(=O)c3ccccc3C2=O)CC1 | inactive: 108%
9 | COc1cccc(NC(=O)Cn2c(=O)n(-c3cccc(OC)c3)c(=O)c3sc4ccccc4c32)c1 | inactive: 72%
10 | CCC(C)(C)NC(=O)C1CCC(CNS(=O)(=O)c2ccc3c(c2)CC(C)N3C(C)=O)CC1 (centres undefined) | inactive: 95%
11 | COc1ccc2c(CNCc3ccco3)c(C(=O)O)n(Cc3ccc(F)cc3Cl)c2c1 | inactive: 92%
12 | NC(=S)NN=C1c2cc(S(=O)(=O)N3CCOCC3)ccc2-c2ccc(S(=O)(=O)N3CCOCC3)cc21 | inactive: 114%
13 | Fc1ccccc1N1CCN(c2nnc(C(F)(F)F)c3nnn(Cc4ccccc4)c23)CC1 | inactive: 89%
14 | O=C(Cn1c(SCCOc2ccccc2Cl)nc2ccccc21)N1CCOCC1 | inactive: 68%
15 | Cc1nnc(N(C)C(=O)CNC(=O)c2ccccc2)s1 | inactive: 98%
16 | COc1ccc(CCNc2ncnc3c2nnn3C)cc1OC | inactive: 73%
17 | CCc1ccc(NC(=O)CSc2nc(-c3ccccc3)no2)cc1 | inactive: 68%
18 | CN1CCN(C(=O)Nc2ccc(Cc3ccc(NC(=O)N4CCN(C)CC4)cc3)cc2)CC1 | inactive: 100%
19 | CN(C)S(=O)(=O)N(CC(=O)Nc1ccc(Br)cc1F)c1ccccc1 | inactive: 85%
20 | Oc1ccc(Nc2nc(-c3ccc(O)cc3)cs2)cc1 | inactive: 34%
21 | COc1cccc(C(c2sc3nc(-c4ccco4)nn3c2O)N2CCCC2)c1 (centres undefined) | inactive: 78%
22 | COc1ccccc1Cn1ccn(CC(=O)Nc2c(C)cc(C)cc2C)c(=O)c1=O | inactive: 81%
23 | CC(C)C(=O)NC1CC(=O)N(c2ccc3c(c2)OCCO3)C1 (centres undefined) | inactive: 136%

Row | Compound | survival
24 | Cc1nnc(N2CCN(c3ccc(Cl)cc3)CC2)c2c1nnn2Cc1ccc(F)cc1 | inactive: 89%
25 | CCc1ccc(NC(=O)C(=O)NCCc2sc(-c3ccc(OC)c(OC)c3)nc2C)cc1 | inactive: 77%
26 | CC1CCCCN1C(=O)c1ccc2c(c1)N(Cc1ccc(Cl)cc1)C(=O)c1ccccc1S2=O (centres undefined) | inactive: 110%
27 | COc1cc(OC)cc(C(=O)NCCc2csc(-c3cccc(C)c3)n2)c1 | inactive: 78%
28 | CN(C1CCCCC1)S(=O)(=O)c1ccc(F)c(C(=O)Nc2ccc(C(F)(F)F)cc2)c1 | inactive: 88%
29 | COc1ccc(NC(=O)c2c(NCc3cccs3)sc3c2CCCCC3)cc1 | inactive: 71%
30 | Cc1c(C(=O)Nc2cccc(F)c2)sc2nc(-c3cc4ccccc4oc3=O)[nH]c(=O)c12 | inactive: 72%
31 | Cc1ccc(-n2nc(C)c3c(C)cc(=O)n(CC(=O)Nc4ccc(C(C)C)cc4)c32)cc1 | inactive: 153%
32 | CCOC(=O)c1[nH]c2ccccc2c1NC(=O)c1c(F)cccc1F | inactive: 173%
33 | O=C(NCc1ccccc1Cl)c1ccc2c(c1)N(Cc1ccccc1)C(=O)c1ccccc1S2 | inactive: 148%
34 | CCOC(=O)c1sc2ncn(CC(=O)Nc3cccc(C)c3)c(=O)c2c1C | inactive: 88%
35 | C1CCC(Nc2nnnn2C2CCCCC2)CC1 | inactive: 102%
36 | CCc1cccc(NC(=O)c2cc(-c3ccccc3)n[nH]2)c1 | inactive: 138%
37 | O=C(Nc1cccc(Cl)c1)C1CCN(c2nc3ccccc3nc2C(F)(F)F)CC1 | inactive: 79%
38 | COc1cc(NC(C)=O)ccc1-c1cc2ccccc2oc1=O | inactive: 105%
39 | COc1cccc(OCCCn2c(-c3ccc(Cl)cc3)nc3ccccc3c2=O)c1 | inactive: 68%
40 | COc1ccc(Nc2ncc(C(=O)N3CCN(c4ccc(OC)cc4)CC3)c3ccccc23)cc1 | inactive: 83%
41 | O=C(c1ccc2c(c1)CCN2S(=O)(=O)c1ccc(Cl)cc1)N1CCN(c2ccccc2F)CC1 | inactive: 83%
42 | Cc1ccccc1Cn1c(=O)n(Cc2ccco2)c(=O)c2oc3ccccc3c21 | inactive: 92%
43 | CCCCNC(=O)c1cnc2sc(N3CCCCC3)nn2c1=O | inactive: 69%
44 | Cc1cc(OC(C)C(=O)N2CCN(CCc3ccccn3)CC2)ccc1Cl (centres undefined) | inactive: 78%
45 | Cc1nc2c(c(SCC(=O)Nc3ccccc3C(F)(F)F)n1)CCC2 | inactive: 84%
46 | O=C(O)C1C2C=CC(O2)C1C(=O)N1CCOCC1 (centres undefined) | inactive: 96%

Row | Compound | survival
47 | CN(C)c1ccc(CN2CCc3nc(N4CCN(c5ccccn5)CC4)ncc3C2)cc1 | inactive: 51%
48 | CCC(CC)C(=O)Nc1ccc(OCc2cc(=O)n3ccc(C)cc3n2)cc1 | inactive: 131%
49 | CCOC(=O)C1CCN(C(=O)c2nn(-c3ccc(C)cc3)c(=O)c3c2c2ccccc2n3C)CC1 | inactive: 73%
50 | CCOc1ccccc1N1CC(c2nc3ccccc3n2CCCOc2ccccc2)CC1=O (centres undefined) | inactive: 58%
51 | CC(C)N(Cc1ccccc1)C(=O)c1cc2ccc3cccnc3c2[nH]1 | inactive: 88%
52 | COc1ccc(C(C(=O)Nc2ccc(C(C)C)cc2)N(C)C(=O)Cc2cccs2)cc1 (centres undefined) | inactive: 135%
53 | Cc1ccc(OC(=O)CCC(=O)N2CCN(C(=O)CCC(=O)Oc3ccc(C)cc3)CC2)cc1 | inactive: 111%
54 | CC(C)CC(=O)N1CCN(S(=O)(=O)c2ccccc2)CC1 | inactive: 105%
55 | Cc1oc(CC(C)C)cc1C(N)=O | inactive: 109%
56 | O=C(Nc1ccc(OC(F)(F)F)cc1)C1CCCN(S(=O)(=O)c2ccc(Br)s2)C1 (centres undefined) | inactive: 69%
57 | O=C(Cc1csc2ccccc12)NCc1ccc(F)cc1 | inactive: 79%
58 | Cc1ccccc1Nc1nnc(-c2ccc(C)c(S(=O)(=O)N3CCN(C)CC3)c2)c2ccccc12 | inactive: 85%
59 | COc1cccc(NC(c2nnc(-c3ccccc3)o2)c2ccc(F)cc2Cl)c1 (centres undefined) | inactive: 56%
60 | COc1ccc(C(=O)NCC(c2cccnc2)N2CCN(c3ccccc3OC)CC2)cc1 (centres undefined) | inactive: 82%
61 | CC(C)(C)c1ccc(C(=O)Nc2nc3nc(-c4ccccc4)cc(=O)n3[nH]2)cc1 | inactive: 106%
62 | Cc1ccc(NC(=O)Cn2c(SCc3cccc(F)c3)nc3ccncc32)c(C)c1 | inactive: 69%
63 | C#CC(C)(CC)NC(=O)Cn1nnc(-c2ccc(OCc3ccccc3Cl)cc2)n1 (centres undefined) | inactive: 74%
64 | COc1ccc(Br)cc1CNC(=O)CN1C(=O)CCCc2ccccc21 | inactive: 89%
65 | Cc1c(CCC(=O)NCc2ccc(F)cc2)c(=O)oc2cc(O)ccc12 | inactive: 116%
66 | COCCCNC(=O)C1CCCN(c2ncnc3onc(C)c23)C1 (centres undefined) | inactive: 77%
67 | COc1ccc(CCNC(=O)c2ccc3c(Cl)c4c(nc3c2)CCCC4)cc1OC | inactive: 76%
68 | CN1CCN(C(=O)C23CC4CC(CC(C4)C2)C3)CC1 | inactive: 110%
69 | Cc1ccccc1OCC(=O)Nc1ccc(C(=O)OCc2cc(=O)n3c(C)csc3n2)cc1 | inactive: 134%

Row | Compound | survival
70 | Cc1ccc2oc(C(=O)Nc3nc(-c4ccc(F)cc4)ns3)c(C)c2c1 | inactive: 87%
71 | CCc1ccc(C(=O)c2cn(CC(=O)Nc3ccc4c(c3)OCCO4)c3ccc(CC)cc3c2=O)cc1 | inactive: 88%
72 | COc1ccc(C2c3c(oc4cc(C)cc(C)c4c3=O)C(=O)N2Cc2ccco2)cc1OC (centres undefined) | inactive: 91%
73 | COc1cccc(NC(=O)CSC2=Nc3ccccc3C3=NC(CC(=O)NCc4cccs4)C(=O)N23)c1 (centres undefined) | inactive: 77%
74 | COc1ccc(Cn2c(CNC(=O)Cc3cccc([N+](=O)[O-])c3)nc3cccnc32)cc1 | active: -6%
75 | CC(=O)N1CCN(c2nc3c(F)cc(F)cc3s2)CC1 | inactive: 80%
76 | COc1ccc(CNC(=O)CSCc2cnn(-c3ccccc3)c2-n2cccc2)cc1OC | inactive: 125%
77 | Cc1cccc(N2CCN(C(=O)c3cc4c(=O)[nH]c5ccc(C)cc5c4s3)CC2C)c1 (centres undefined) | inactive: 124%
78 | Cc1cc(C)cc(NC(=O)c2sc3nc[nH]c(=O)c3c2C)c1 | inactive: 77%
79 | CCOC(=O)Cn1c(=O)n(CC2CCCO2)c2nc(-c3ccccc3Cl)nc(C(N)=O)c21 (centres undefined) | inactive: 55%
80 | COc1ccccc1C(=O)Nc1c(C(=O)c2ccccc2)oc2ccccc12 | active: -3%
81 | CCOc1ccc(N(CC)C(=O)c2noc3c2COc2ccc(C)cc2-3)cc1 | inactive: 94%
82 | O=c1c(N2CCc3ccccc3C2)csc2ccc(F)cc12 | inactive: 84%
83 | CC1=C(C(=O)Nc2ccccc2C)C(c2cccs2)n2nc(SCc3cc(C)ccc3C)nc2N1 (centres undefined) | inactive: 143%
84 | CCOC(=O)c1ccc(CN(Cc2ccc(OC)cc2)S(=O)(=O)c2cccc(C(F)(F)F)c2)cc1 | inactive: 73%
85 | O=C(CCCn1c(=O)c2cccn2c2cccnc21)Nc1ccccc1C(F)(F)F | inactive: 90%
86 | CCOc1ccccc1NC(=O)C1=C(C)Nc2ncnn2C1c1sccc1C (centres undefined) | inactive: 90%
87 | Cc1ccc(CNC(=O)c2c(-c3ccc(Br)cc3)noc2C)o1 | inactive: 82%
88 | CCn1c2c(c(=O)n3ncc(C(=O)Nc4ccc(C(=O)OC)cc4)c13)CN(Cc1ccc(OC)cc1)CC2 | inactive: 55%
89 | COc1ccc(C)cc1NC(=O)c1ccc2nc(Cc3ccccc3)oc2c1 | inactive: 128%
